Assay results taken from publication PMC8673838, “MCPH1 inhibits Condensin II during interphase by regulating its SMC2-Kleisin interface” (eLife, 2021).
These are yes or no findings as the source states them, for the method shown. For some assays here: In cells and extracts the contact can be indirect. Some binding calls cover weakened binding; strength is not graded here. For some assays here: Sequences can lack the tags named with a protein.

Amino acid sequences for entries named in this document (tags omitted). A change or cut given only in a name is not applied to a line headed by its entry.
UniProt O95347: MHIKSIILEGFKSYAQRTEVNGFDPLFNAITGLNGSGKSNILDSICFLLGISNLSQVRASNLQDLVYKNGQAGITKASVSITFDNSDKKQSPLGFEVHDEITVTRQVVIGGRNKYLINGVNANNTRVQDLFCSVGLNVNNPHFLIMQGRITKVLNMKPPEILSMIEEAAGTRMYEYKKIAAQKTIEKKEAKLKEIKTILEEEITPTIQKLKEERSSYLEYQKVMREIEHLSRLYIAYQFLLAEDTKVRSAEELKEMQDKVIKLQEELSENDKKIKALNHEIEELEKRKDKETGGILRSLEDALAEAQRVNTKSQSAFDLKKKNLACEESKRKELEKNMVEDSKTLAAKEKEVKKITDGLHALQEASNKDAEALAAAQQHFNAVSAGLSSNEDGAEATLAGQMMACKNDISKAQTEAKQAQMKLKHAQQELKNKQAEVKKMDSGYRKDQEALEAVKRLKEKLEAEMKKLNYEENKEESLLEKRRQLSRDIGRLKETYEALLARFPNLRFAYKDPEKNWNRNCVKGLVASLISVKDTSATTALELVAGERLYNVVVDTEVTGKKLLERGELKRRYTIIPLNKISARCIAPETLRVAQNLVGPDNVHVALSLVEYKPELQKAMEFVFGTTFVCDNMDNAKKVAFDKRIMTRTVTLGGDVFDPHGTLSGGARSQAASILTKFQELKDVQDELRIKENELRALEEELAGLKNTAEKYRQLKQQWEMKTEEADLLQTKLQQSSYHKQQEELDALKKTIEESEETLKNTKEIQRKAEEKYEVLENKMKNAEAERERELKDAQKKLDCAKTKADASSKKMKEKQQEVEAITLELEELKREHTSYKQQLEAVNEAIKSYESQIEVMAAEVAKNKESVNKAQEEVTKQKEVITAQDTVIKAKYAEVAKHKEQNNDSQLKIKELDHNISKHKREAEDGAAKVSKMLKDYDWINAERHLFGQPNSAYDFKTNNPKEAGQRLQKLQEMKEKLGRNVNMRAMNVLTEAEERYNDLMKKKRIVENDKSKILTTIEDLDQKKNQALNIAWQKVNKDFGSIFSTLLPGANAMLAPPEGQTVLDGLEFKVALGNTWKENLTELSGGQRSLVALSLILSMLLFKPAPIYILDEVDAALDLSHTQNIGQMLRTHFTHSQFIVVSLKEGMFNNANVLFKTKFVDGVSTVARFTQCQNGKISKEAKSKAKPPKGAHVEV
UniProt Q9NTJ3: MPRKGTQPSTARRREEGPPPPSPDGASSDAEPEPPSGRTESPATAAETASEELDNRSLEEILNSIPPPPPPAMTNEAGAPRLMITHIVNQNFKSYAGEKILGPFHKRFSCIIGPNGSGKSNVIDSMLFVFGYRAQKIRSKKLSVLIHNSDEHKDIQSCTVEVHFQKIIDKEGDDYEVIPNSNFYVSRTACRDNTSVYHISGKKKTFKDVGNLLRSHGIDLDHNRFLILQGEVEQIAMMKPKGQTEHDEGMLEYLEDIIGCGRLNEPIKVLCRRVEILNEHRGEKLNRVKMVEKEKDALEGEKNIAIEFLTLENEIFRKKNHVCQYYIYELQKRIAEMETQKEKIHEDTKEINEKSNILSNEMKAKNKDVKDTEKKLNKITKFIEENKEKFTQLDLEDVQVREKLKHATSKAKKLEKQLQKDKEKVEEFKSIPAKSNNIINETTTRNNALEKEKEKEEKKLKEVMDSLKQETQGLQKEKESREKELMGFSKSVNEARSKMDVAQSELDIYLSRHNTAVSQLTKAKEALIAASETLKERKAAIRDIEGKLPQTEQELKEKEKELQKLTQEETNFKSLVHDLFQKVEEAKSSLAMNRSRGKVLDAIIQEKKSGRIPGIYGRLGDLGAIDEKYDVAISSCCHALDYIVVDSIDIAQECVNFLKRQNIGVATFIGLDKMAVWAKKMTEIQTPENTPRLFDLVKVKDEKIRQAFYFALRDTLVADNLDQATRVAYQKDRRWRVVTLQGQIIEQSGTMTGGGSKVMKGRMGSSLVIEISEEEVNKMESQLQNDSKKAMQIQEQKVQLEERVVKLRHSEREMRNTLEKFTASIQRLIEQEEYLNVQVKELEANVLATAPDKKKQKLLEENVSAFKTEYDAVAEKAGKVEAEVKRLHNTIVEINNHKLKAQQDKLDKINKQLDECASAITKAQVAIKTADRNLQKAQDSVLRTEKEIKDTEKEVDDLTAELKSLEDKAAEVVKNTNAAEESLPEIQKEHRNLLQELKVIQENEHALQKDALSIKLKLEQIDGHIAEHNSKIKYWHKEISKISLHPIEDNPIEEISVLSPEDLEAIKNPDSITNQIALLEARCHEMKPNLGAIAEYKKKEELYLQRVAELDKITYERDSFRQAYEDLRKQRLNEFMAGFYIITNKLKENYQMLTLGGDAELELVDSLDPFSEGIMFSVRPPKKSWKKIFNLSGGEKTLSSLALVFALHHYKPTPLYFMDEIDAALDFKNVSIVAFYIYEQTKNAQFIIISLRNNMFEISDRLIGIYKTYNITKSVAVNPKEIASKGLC
UniProt Q6IBW4: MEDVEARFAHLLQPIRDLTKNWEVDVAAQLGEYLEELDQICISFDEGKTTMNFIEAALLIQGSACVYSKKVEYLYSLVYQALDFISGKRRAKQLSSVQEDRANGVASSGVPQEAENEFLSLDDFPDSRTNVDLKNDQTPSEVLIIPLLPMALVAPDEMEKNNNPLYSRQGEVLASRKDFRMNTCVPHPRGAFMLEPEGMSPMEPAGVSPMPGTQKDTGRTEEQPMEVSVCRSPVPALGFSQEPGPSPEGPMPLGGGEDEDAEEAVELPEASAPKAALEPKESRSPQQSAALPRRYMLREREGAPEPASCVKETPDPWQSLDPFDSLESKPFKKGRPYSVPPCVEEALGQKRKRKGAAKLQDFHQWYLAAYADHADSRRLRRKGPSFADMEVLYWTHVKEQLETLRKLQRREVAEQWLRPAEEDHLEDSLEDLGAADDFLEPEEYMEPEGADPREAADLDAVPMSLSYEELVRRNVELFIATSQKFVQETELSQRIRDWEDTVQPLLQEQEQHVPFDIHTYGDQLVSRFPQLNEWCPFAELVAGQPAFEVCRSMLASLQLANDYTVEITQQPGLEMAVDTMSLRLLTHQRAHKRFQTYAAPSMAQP
UniProt P42695: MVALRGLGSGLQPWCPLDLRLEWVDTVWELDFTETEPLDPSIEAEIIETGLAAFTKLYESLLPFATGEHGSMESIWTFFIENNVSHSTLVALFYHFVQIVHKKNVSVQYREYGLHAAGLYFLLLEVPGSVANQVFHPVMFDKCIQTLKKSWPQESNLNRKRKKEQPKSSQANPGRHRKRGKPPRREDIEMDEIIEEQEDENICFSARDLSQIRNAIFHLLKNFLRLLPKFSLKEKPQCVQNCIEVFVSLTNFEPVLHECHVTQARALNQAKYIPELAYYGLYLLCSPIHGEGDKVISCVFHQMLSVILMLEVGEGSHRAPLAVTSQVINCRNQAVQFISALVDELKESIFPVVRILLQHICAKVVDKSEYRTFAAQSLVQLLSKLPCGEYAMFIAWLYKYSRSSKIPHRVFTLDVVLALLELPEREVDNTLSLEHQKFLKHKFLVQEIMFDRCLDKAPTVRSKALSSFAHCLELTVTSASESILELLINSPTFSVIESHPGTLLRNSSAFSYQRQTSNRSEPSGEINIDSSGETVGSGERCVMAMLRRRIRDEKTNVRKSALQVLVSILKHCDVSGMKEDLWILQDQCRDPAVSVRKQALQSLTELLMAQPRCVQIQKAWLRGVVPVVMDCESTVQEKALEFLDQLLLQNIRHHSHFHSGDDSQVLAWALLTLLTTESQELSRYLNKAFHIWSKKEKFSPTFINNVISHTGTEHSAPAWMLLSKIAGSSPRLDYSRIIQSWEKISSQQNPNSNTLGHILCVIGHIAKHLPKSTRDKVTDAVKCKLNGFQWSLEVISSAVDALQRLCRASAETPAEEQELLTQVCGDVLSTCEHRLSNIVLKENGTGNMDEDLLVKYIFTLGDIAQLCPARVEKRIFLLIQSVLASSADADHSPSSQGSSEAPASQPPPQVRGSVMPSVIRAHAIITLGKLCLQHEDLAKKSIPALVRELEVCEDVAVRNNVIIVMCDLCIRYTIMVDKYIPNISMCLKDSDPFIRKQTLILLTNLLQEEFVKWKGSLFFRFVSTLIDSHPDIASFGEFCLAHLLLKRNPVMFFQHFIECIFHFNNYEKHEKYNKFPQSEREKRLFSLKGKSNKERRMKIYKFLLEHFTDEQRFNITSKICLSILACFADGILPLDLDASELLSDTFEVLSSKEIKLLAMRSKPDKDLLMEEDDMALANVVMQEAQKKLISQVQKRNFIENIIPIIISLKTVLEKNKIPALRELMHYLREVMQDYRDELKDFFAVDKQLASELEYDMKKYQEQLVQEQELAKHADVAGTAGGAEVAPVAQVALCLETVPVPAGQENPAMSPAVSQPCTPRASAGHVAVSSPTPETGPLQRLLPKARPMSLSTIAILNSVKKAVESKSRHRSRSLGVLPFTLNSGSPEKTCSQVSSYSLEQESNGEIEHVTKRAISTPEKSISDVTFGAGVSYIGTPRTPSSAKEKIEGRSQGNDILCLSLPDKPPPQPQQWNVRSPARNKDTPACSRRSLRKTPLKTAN
UniProt Q86XI2: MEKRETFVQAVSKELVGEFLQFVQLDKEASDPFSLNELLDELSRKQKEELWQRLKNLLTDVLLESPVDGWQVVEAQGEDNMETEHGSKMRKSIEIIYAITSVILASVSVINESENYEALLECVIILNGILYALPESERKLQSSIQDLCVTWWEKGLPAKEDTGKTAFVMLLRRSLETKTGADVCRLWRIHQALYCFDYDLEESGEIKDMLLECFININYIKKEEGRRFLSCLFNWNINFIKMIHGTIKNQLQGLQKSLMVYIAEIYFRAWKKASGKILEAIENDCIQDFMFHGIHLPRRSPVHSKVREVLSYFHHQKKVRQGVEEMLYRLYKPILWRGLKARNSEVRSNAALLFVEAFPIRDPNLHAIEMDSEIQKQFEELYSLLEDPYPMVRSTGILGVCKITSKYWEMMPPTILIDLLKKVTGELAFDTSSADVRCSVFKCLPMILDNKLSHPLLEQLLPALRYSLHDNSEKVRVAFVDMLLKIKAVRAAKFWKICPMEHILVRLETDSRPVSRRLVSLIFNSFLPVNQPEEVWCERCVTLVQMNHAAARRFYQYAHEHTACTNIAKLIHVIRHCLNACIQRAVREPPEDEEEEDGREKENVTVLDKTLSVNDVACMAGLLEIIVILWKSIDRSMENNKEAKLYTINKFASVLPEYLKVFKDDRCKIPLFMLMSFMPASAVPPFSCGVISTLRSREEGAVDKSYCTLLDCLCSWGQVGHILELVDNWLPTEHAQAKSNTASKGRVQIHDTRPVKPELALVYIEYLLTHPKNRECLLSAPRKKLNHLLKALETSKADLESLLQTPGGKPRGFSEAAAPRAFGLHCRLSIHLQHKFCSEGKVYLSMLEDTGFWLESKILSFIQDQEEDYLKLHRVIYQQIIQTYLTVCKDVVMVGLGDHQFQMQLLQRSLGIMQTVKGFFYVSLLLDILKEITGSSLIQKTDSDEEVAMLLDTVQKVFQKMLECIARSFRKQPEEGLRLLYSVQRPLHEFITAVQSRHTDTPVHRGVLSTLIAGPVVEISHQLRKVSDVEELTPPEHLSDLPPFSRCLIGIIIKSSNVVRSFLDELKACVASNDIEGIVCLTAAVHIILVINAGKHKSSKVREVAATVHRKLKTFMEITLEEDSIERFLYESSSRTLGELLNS

Key:
[1] = target: T1, 5-FAM-labelled MCPH1_(407-424) peptide (human); assay: condition: 5 µM (highest concentration of the complex); fluorescence polarisation; direct binding; 0.3 µM 5-FAM peptide, 0.625-5 µM condensin II complex; 20 mM Tris pH 7.5, 200 mM NaCl, 1 mM DTT; room temperature; both purified
T1 sequence (peptide, 5-FAM on the N-terminus): CGESSYDDYFSPDNLKER

[2] = target: T2, mouse NCAPH2-GFP (mouse (endogenous in E14)) (UniProt Q8BSP2); assay: co-IP; nuclear extracts of E14 mouse ES cells, 1 mg protein, GFP-Trap agarose overnight at 4 °C, 20 mM Tris pH 7.5, 200 mM NaCl, 1 % Triton X-100, 0.1 % deoxycholate, nuclease; western blot or in-gel Halo-TMR
T2 sequence: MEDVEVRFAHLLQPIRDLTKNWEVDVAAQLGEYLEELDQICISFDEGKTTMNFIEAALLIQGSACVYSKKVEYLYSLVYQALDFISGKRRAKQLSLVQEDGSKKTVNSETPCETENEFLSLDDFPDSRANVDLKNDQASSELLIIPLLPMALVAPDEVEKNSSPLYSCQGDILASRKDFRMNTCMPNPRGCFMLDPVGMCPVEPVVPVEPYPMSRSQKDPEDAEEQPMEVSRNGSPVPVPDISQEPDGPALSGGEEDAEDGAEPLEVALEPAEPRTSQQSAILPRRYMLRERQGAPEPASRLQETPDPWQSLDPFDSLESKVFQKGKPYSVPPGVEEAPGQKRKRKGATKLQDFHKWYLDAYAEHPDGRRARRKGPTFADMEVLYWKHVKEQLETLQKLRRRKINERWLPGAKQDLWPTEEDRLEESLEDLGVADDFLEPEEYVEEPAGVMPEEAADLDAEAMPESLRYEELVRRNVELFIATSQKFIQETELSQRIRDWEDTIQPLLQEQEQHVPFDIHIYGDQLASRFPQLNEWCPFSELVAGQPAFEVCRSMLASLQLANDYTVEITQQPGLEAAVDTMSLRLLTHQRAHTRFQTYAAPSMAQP

[3] = target: T3, mouse MCPH1-GFP (mouse (endogenous in E14)) (UniProt Q7TT79); assay: as above
T3 sequence: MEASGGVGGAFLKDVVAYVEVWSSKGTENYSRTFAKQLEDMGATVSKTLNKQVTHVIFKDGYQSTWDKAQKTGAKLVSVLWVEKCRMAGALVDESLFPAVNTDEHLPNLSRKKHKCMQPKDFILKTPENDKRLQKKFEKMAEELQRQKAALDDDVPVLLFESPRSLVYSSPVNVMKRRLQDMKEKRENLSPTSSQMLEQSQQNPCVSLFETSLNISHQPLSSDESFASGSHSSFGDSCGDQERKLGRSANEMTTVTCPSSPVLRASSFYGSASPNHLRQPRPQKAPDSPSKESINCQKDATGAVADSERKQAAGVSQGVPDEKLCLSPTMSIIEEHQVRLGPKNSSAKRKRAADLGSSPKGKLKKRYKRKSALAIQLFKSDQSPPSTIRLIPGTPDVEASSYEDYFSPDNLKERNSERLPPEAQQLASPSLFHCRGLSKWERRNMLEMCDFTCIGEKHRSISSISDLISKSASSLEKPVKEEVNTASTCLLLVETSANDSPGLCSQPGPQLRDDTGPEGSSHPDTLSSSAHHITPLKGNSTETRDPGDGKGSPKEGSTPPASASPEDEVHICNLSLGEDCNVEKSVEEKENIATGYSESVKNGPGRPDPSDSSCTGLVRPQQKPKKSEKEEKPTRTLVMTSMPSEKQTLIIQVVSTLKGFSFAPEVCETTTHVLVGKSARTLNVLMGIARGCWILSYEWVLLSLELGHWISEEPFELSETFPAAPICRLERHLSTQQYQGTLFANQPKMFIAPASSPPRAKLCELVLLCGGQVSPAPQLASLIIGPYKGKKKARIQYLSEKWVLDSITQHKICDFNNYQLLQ

[4] = target: T4, mouse MCPH1-GFP lacking the central domain motif (residues 400-414) (mouse (endogenous in E14)) (UniProt Q7TT79); assay: as above
T4 sequence: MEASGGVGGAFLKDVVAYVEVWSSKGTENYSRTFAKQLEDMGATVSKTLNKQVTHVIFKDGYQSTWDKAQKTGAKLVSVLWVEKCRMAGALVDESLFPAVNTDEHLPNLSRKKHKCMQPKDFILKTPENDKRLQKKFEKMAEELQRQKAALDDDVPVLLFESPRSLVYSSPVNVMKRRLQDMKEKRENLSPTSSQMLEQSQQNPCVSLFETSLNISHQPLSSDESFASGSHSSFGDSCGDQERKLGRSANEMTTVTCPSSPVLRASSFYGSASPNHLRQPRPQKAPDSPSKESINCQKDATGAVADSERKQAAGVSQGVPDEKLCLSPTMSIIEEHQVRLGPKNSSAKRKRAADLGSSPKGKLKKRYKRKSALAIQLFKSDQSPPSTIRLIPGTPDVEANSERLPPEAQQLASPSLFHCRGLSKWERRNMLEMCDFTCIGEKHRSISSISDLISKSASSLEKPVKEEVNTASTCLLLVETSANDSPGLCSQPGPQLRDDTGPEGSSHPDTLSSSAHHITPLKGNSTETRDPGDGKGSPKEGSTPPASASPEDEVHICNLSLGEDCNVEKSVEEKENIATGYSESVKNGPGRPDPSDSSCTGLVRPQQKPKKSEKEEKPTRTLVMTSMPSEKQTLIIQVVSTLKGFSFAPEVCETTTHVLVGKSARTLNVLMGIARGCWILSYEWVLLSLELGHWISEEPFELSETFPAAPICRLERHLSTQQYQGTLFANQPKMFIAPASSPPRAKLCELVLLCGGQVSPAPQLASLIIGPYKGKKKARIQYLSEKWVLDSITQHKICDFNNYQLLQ

[5] = target: human condensin II pentameric complex (SMC2, SMC4, NCAPH2, NCAPD3, NCAPG2) (human) (UniProt O95347+Q9NTJ3+Q6IBW4+P42695+Q86XI2); assay: condition: at least a 10-fold molecular excess over 0.1 µM condensin complex; pull-down; strep-tagged condensin complexes (0.1 µM) with at least a 10-fold molecular excess of MBP MCPH1 constructs or MBP, Strep-tactin sepharose, 20 mM Tris pH 7.5, 150 mM NaCl, 10 % glycerol, 1 mM DTT; five washes; Coomassie or silver stain; both purified

tetrameric condensin II lacking NCAPG2 (from UniProt O95347 1-1197; Q9NTJ3 1-1288; Q6IBW4 1-605; P42695 1-1498) (complex)
binding [1]: no binding

B1: mouse MCPH1, endogenous, untagged (protein, UniProt Q7TT79 1-822)
chain: MEASGGVGGAFLKDVVAYVEVWSSKGTENYSRTFAKQLEDMGATVSKTLNKQVTHVIFKDGYQSTWDKAQKTGAKLVSVLWVEKCRMAGALVDESLFPAVNTDEHLPNLSRKKHKCMQPKDFILKTPENDKRLQKKFEKMAEELQRQKAALDDDVPVLLFESPRSLVYSSPVNVMKRRLQDMKEKRENLSPTSSQMLEQSQQNPCVSLFETSLNISHQPLSSDESFASGSHSSFGDSCGDQERKLGRSANEMTTVTCPSSPVLRASSFYGSASPNHLRQPRPQKAPDSPSKESINCQKDATGAVADSERKQAAGVSQGVPDEKLCLSPTMSIIEEHQVRLGPKNSSAKRKRAADLGSSPKGKLKKRYKRKSALAIQLFKSDQSPPSTIRLIPGTPDVEASSYEDYFSPDNLKERNSERLPPEAQQLASPSLFHCRGLSKWERRNMLEMCDFTCIGEKHRSISSISDLISKSASSLEKPVKEEVNTASTCLLLVETSANDSPGLCSQPGPQLRDDTGPEGSSHPDTLSSSAHHITPLKGNSTETRDPGDGKGSPKEGSTPPASASPEDEVHICNLSLGEDCNVEKSVEEKENIATGYSESVKNGPGRPDPSDSSCTGLVRPQQKPKKSEKEEKPTRTLVMTSMPSEKQTLIIQVVSTLKGFSFAPEVCETTTHVLVGKSARTLNVLMGIARGCWILSYEWVLLSLELGHWISEEPFELSETFPAAPICRLERHLSTQQYQGTLFANQPKMFIAPASSPPRAKLCELVLLCGGQVSPAPQLASLIIGPYKGKKKARIQYLSEKWVLDSITQHKICDFNNYQLLQ
binding [2]: binds

B2: mouse NCAPH2-Halo (protein, UniProt Q8BSP2 1-607)
chain: MEDVEVRFAHLLQPIRDLTKNWEVDVAAQLGEYLEELDQICISFDEGKTTMNFIEAALLIQGSACVYSKKVEYLYSLVYQALDFISGKRRAKQLSLVQEDGSKKTVNSETPCETENEFLSLDDFPDSRANVDLKNDQASSELLIIPLLPMALVAPDEVEKNSSPLYSCQGDILASRKDFRMNTCMPNPRGCFMLDPVGMCPVEPVVPVEPYPMSRSQKDPEDAEEQPMEVSRNGSPVPVPDISQEPDGPALSGGEEDAEDGAEPLEVALEPAEPRTSQQSAILPRRYMLRERQGAPEPASRLQETPDPWQSLDPFDSLESKVFQKGKPYSVPPGVEEAPGQKRKRKGATKLQDFHKWYLDAYAEHPDGRRARRKGPTFADMEVLYWKHVKEQLETLQKLRRRKINERWLPGAKQDLWPTEEDRLEESLEDLGVADDFLEPEEYVEEPAGVMPEEAADLDAEAMPESLRYEELVRRNVELFIATSQKFIQETELSQRIRDWEDTIQPLLQEQEQHVPFDIHIYGDQLASRFPQLNEWCPFSELVAGQPAFEVCRSMLASLQLANDYTVEITQQPGLEAAVDTMSLRLLTHQRAHTRFQTYAAPSMAQP
modifications: Halo-TMR ligand on the Halo-tag
binding [3]: binds
binding [4]: no binding

B3: MBP-MCPH1_(1-195) (domain or fragment, UniProt Q8NEM0 1-195)
chain: MAAPILKDVVAYVEVWSSNGTENYSKTFTTQLVDMGAKVSKTFNKQVTHVIFKDGYQSTWDKAQKRGVKLVSVLWVEKCRTAGAHIDESLFPAANMNEHLSSLIKKKRKCMQPKDFNFKTPENDKRFQKKFEKMAKELQRQKTNLDDDVPILLFESNGSLIYTPTIEINSRHHSAMEKRLQEMKEKRENLSPTSS
binding [5]: no binding
